Laboratory results reported in the antibiotic and cytotoxicity screens of Wong et al. (2023).
The list shows a part of the results.

These compounds were tested on HSkMC (human skeletal muscle cells) (assay: cytotoxicity call (relative viability < 0.9)). Conditions: 10 µM.

Compound	cytotoxicity call
C[C@@H]1CCCCO[C@@H](CN(C)C(=O)c2ccccc2)[C@H](C)CN([C@H](C)CO)C(=O)c2cc(NC(=O)Nc3ccccc3)ccc2O1	inactive
CC1=CC=CC2=NC(=O)C[C@](C)(C(=O)O)N12	inactive
C[C@@H]1CCCCO[C@@H](CN(C)CC2CCCCC2)[C@H](C)CN([C@@H](C)CO)C(=O)c2cc(NC(=O)C3CCCCC3)ccc2O1	inactive
C[C@@H]1CN([C@H](C)CO)C(=O)Cc2cc(NC(=O)Cc3ccccc3)ccc2O[C@@H]1CN(C)Cc1ccc(Cl)c(Cl)c1	active
C[C@@H]1CN([C@@H](C)CO)C(=O)c2ccccc2-c2ccccc2CO[C@H]1CN(C)C(=O)Nc1cccc(F)c1	inactive
Cc1ccc(-c2nc(Nc3cccc(Cl)c3)sc2C)cc1	inactive
C=CC[C@@H](CC(=O)NCCO)C(=O)N[C@@H](COC(=O)[C@@H](CC=C)CC(=O)OC(C)(C)C)Cc1ccccc1	inactive
C[C@@H]1CN([C@H](C)CO)C(=O)c2cc(NC(=O)Nc3ccccc3)ccc2O[C@H]1CN(C)C(=O)Nc1cccc2ccccc12	inactive
O=C(C[C@H]1CC[C@@H](NC(=O)c2cccnc2)[C@@H](CO)O1)NCCN1CCCCC1	inactive
Cn1cnc(S(=O)(=O)N2C[C@@H](O)COC[C@@H]3O[C@@H](CC(=O)NC4Cc5ccccc5C4)CC[C@H]32)c1	inactive
C[C@@H]1CCCCO[C@@H](CN(C)Cc2ccc(Cl)c(Cl)c2)[C@H](C)CN([C@@H](C)CO)C(=O)c2cc(NC(=O)Nc3ccccc3)ccc2O1	inactive
CC(C)NC(=O)Nc1cccc2c1O[C@@H](CN(C)Cc1ccc(-c3ccccc3)cc1)[C@H](C)CN([C@H](C)CO)C2=O	inactive
C[C@@H]1CN([C@H](C)CO)C(=O)c2cc(NC(=O)Nc3cccc4ccccc34)ccc2O[C@H]1CN(C)C(=O)Nc1ccc(C(F)(F)F)cc1	inactive
C[C@H]1CN([C@@H](C)CO)C(=O)c2cc(NC(=O)Cn3cnnn3)ccc2O[C@@H]1CN(C)Cc1ccc(C(=O)O)cc1	inactive
COc1ccc(C(C)(C)N)cc1OC	inactive
C[C@@H]1CN([C@H](C)CO)S(=O)(=O)c2ccc(Br)cc2O[C@H]1CN(C)C(=O)Cc1ccccn1	inactive
COc1ccc(NC(=O)N(C)C[C@H]2Oc3ccc(NS(=O)(=O)c4cn(C)cn4)cc3CC(=O)N([C@@H](C)CO)C[C@@H]2C)cc1	inactive
C[C@@H]1CN([C@H](C)CO)C(=O)c2cc(NC(=O)Cc3ccccc3)ccc2O[C@@H]1CN(C)Cc1ccc(Cl)c(Cl)c1	inactive
C[C@H](CO)N1C[C@H](C)[C@H](CN(C)S(=O)(=O)c2cccs2)Oc2c(NS(=O)(=O)c3ccccc3)cccc2C1=O	inactive
COc1cc(N2CCC(N)CC2)ccc1Nc1ncc(Cl)c(-c2c[nH]c3ccccc23)n1	active

Compound	cytotoxicity call
CC1(C)OC(=O)NC1=O	inactive
C[C@@H]1CN([C@H](C)CO)C(=O)c2cccc(NC(=O)NC3CCCCC3)c2O[C@@H]1CN(C)S(C)(=O)=O	inactive
COCC#Cc1cnc2c(c1)C(=O)N([C@H](C)CO)C[C@H](C)[C@H](CN(C)C(=O)c1cnccn1)O2	inactive
Cc1ccc(S(=O)(=O)N(C)C[C@H]2OCCCC[C@H](C)Oc3ccc(NC(=O)CCC(F)(F)F)cc3C(=O)N([C@H](C)CO)C[C@H]2C)cc1	inactive
NCCc1nc(-c2ccncc2)no1	inactive
CC(C)COC(=O)CNc1n[nH]c(=O)[nH]c1=O	inactive
Cc1noc(C)c1S(=O)(=O)N(C)C[C@H]1Oc2ccc(NS(=O)(=O)c3cccs3)cc2CC(=O)N([C@H](C)CO)C[C@@H]1C	inactive
CN(C)CCCNC(=O)C[C@@H]1CC[C@H]2[C@@H](COc3ccc(NS(C)(=O)=O)cc3C(=O)N2C)O1	inactive
Cc1noc(C)c1NC(=O)N(C)C[C@H]1Oc2ccc(NC(=O)Cn3cnnn3)cc2C(=O)N([C@@H](C)CO)C[C@@H]1C	inactive
CO[C@H]1O[C@H](CO)[C@@H](OC(=O)Nc2ccc3c(c2)OCO3)[C@H](OC(=O)Nc2ccc3c(c2)OCO3)[C@@H]1OC(=O)Nc1ccc2c(c1)OCO2	inactive
C[C@@H]1CCCCO[C@@H](CN(C)C(=O)Cc2ccccc2)[C@@H](C)CN([C@H](C)CO)C(=O)c2cc(NC(=O)Nc3ccccc3)ccc2O1	inactive
O=S(=O)(O)NC1CCCCC1	inactive
Cc1noc(C)c1S(=O)(=O)Nc1ccc2c(c1)C(=O)N([C@@H](C)CO)C[C@@H](C)[C@@H](CN(C)C(=O)Nc1ccc(F)cc1)OCCCC[C@@H](C)O2	inactive
C[C@H](CO)N1C[C@H](C)[C@@H](CN(C)Cc2ccc(Cl)c(Cl)c2)Oc2ccc(NC(=O)Nc3cccc4ccccc34)cc2CC1=O	inactive
Cc1ccc(S[C@]2(C(=O)NCC(C)C)CC(=O)N(Cc3ccccc3C(F)(F)F)[C@@H]2c2ccc(CO)cc2)cc1	inactive
C[C@H](CO)N1C[C@H](C)[C@H](CN(C)C(=O)c2ccncc2)OCCCC[C@H](C)Oc2ccc(NS(=O)(=O)c3ccc(Cl)cc3)cc2C1=O	inactive
C[C@@H]1CCCCO[C@@H](CN(C)Cc2ccc(C(F)(F)F)cc2)[C@H](C)CN([C@@H](C)CO)C(=O)c2cc(NC(=O)Nc3ccc(F)cc3)ccc2O1	inactive
C[C@@H]1CCCCO[C@@H](CN(C)Cc2ccc(Cl)c(Cl)c2)[C@@H](C)CN([C@H](C)CO)C(=O)c2cc(NC(=O)CCCCCC(=O)Nc3ccccc3N)ccc2O1	inactive
Cc1cnc(C(=O)Nc2nn[nH]n2)cn1	inactive
CC(COc1ccccc1)NC(C)C(O)c1ccc(O)cc1.Cl (stereo not given)	inactive
